# Where “and” joins values, the source holds several entries; their conditions need not be identical. Equal entries are not always repeated. Structures can show the parent of a compound that is named as a salt. Hit rate of the full screen: of about 5,800 compounds, about 620 (11%) showed activity.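 How the source made its calls: active = score above a cut-off or among the top three wells of a plate; in these data no inactive exceeds 0.85.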 The entries are a selection whose mix differs from that of the whole data set.
# Tested on: primary human hepatic stellate cells (donor 1)
# Experiment: scaled lipid accumulation score (0 = DMSO-like, 1 = nortriptyline-like); higher = stronger HSC inactivation (lipid re-accumulation), active = hit call of the paper
# Conditions: 48 h
# [1] = library stock concentration: 10 mM
# [2] = library stock concentration: 3.33 mM
# [3] = library stock concentration: 1 mM
# [4] = library stock concentration: 80 uM
# [5] = library stock concentration: 400 uM
# [6] = library stock concentration: 2 mM
smiles,measurement,setting,value
CN(C)C(=O)C(=O)c1cn(C)c2cc(Cl)c(C(=O)N3CCC(Cc4ccc(F)cc4)CC3)cc12,scaled lipid accumulation score,[1],inactive: 0.039
CN(C)CC/C=C1\c2ccccc2Sc2ccc(Cl)cc21.Cl [Chlorprothixene hydrochloride],scaled lipid accumulation score,,active: 0.902
O=C1C=CC(=O)C2=C1C1c3ccccc3C2c2ccccc21,scaled lipid accumulation score,[1],active: 0.953
OCCCNc1cc(-c2ccnc(Nc3cccc(Cl)c3)n2)ccn1,scaled lipid accumulation score,[1],active: 0.957
Nc1c2ccccc2nc2ccccc12 [Aminacrine],scaled lipid accumulation score,[1],inactive: 0.499
CS(=O)(=O)c1ccc(-n2nc(C(F)(F)F)cc2-c2ccc(F)cc2)cc1,scaled lipid accumulation score,[1],inactive: ≤ -0.055
Cc1ccc(=O)n(-c2ccccc2)c1 [Pirfenidone],scaled lipid accumulation score,[2],inactive: ≤ 0
same,scaled lipid accumulation score,[1],inactive: ≤ 0 and inactive: ≤ -0.055 and inactive: ≤ -0.006
OCC(O)CCO/N=C1\C(c2c(O)[nH]c3ccccc23)=Nc2ccccc21 (stereo not given) [Indirubin Derivative E804],scaled lipid accumulation score,[2],inactive: ≤ 0
Cc1cc(CN2CCN(c3c(Br)cnc4nc(-c5ccc(N6CCN(C)CC6)cc5)[nH]c34)CC2)no1,scaled lipid accumulation score,[1],inactive: 0.471
O=C(O)/C=C\C(=O)O.O=C(O)/C=C\C(=O)O.c1cc(CN2CCCCC2)cc(OCCCNc2nc3ccccc3s2)c1 [Zolantidine dimaleate],scaled lipid accumulation score,[1],active: 1.5
COc1ccc(C2CC(=O)c3c(O)cc(OC4OC(COC5OC(C)C(O)C(O)C5O)C(O)C(O)C4O)cc3O2)cc1OC (stereo not given) [Methyl-Hesperidin],scaled lipid accumulation score,[2],inactive: ≤ 0
same,scaled lipid accumulation score,[1],inactive: ≤ 0
Cl/C(=C\n1cncn1)c1ccc(Cl)cc1Cl [Loreclezole hydrochloride],scaled lipid accumulation score,[1],inactive: 0.005
O=C(Oc1cc(S(=O)(=O)c2ccccc2)ccc1[N+](=O)[O-])c1ccc(Cl)cc1,scaled lipid accumulation score,[2],inactive: ≤ -0.009
same,scaled lipid accumulation score,[1],inactive: ≤ 0
CCC(=O)NC1Cc2ccccc2C(c2ccccc2)C1 (stereo not given),scaled lipid accumulation score,[1],inactive: ≤ -0.006
N[C@@H](Cc1cc(I)c(Oc2ccc(O)c(I)c2)c(I)c1)C(=O)O [Liothyronine Sodium],scaled lipid accumulation score,[2],inactive: ≤ 0
same,scaled lipid accumulation score,[1],inactive: ≤ -0.001
N[C@@H](Cc1cc(I)c(Oc2ccc(O)c(I)c2)c(I)c1)C(=O)O [Liothyronine],scaled lipid accumulation score,,inactive: ≤ 0
same,scaled lipid accumulation score,library stock concentration: 3.1 mM,inactive: ≤ 0
N[C@@H](Cc1cc(I)c(Oc2ccc(O)c(I)c2)c(I)c1)C(=O)O,scaled lipid accumulation score,[1],inactive: 0.052
N[C@@H](Cc1cc(I)c(Oc2ccc(O)c(I)c2)c(I)c1)C(=O)O [Liothyronine sodium],scaled lipid accumulation score,[1],inactive: 0.105
N[C@@H](Cc1cc(I)c(Oc2ccc(O)c(I)c2)c(I)c1)C(=O)O [Liothyronine (l- isomer) sodium],scaled lipid accumulation score,library stock concentration: 3 mM,inactive: ≤ 0
NC[C@@H]1O[C@@H](O[C@H]2[C@H](O)[C@@H](O[C@H]3O[C@H](CO)[C@@H](O)[C@H](N)[C@H]3O)[C@H](N)C[C@@H]2N)[C@@H](O)[C@H](O)[C@H]1O [Kanamycin A sulfate],scaled lipid accumulation score,,inactive: ≤ 0
NC[C@@H]1O[C@@H](O[C@H]2[C@H](O)[C@@H](O[C@H]3O[C@H](CO)[C@@H](O)[C@H](N)[C@H]3O)[C@H](N)C[C@@H]2N)[C@@H](O)[C@H](O)[C@H]1O [Kanamycin a sulfate],scaled lipid accumulation score,[1],inactive: ≤ 0
Nc1nc(-c2ccc(Cl)c(Cl)c2)c(-c2ccncc2)s1 [CGH 2466 dihydrochloride],scaled lipid accumulation score,[1],inactive: 0.001
N[C@@H](CS(=O)O)C(=O)O [L-Cysteinesulfinic acid],scaled lipid accumulation score,[1],inactive: ≤ 0
N[C@@H](CS(=O)O)C(=O)O [L-Cysteinesulfinic Acid],scaled lipid accumulation score,[1],inactive: ≤ 0
CCCCCCCCCCCCCCCCCCOCC(O)COP(=O)([O-])OCC[N+](C)(C)C (stereo not given),scaled lipid accumulation score,[3],inactive: ≤ 0
COC(=O)[C@H](NC(=O)c1cc(-c2ccccc2)nc2ccccc12)c1ccccc1,scaled lipid accumulation score,[1],inactive: 0.074 and inactive: ≤ -0.006
N#Cc1cc2nc(O)c(O)nc2cc1[N+](=O)[O-] [CNQX disodium salt],scaled lipid accumulation score,[1],inactive: 0.017
N#Cc1cc2nc(O)c(O)nc2cc1[N+](=O)[O-] [CNQX disodium],scaled lipid accumulation score,[1],inactive: ≤ -0.07
COC(=O)C1=C(C#N)NC(C)=C(C(=O)OC(C)C)C1c1cccc([N+](=O)[O-])c1 (stereo not given) [Nilvadipine],scaled lipid accumulation score,[2],inactive: ≤ 0
same,scaled lipid accumulation score,[1],inactive: ≤ 0
"CN(C)C(N)=NCCC[C@H](N)C(=O)O [N^G,N^G-Dimethylarginine hydrochloride]",scaled lipid accumulation score,[1],inactive: ≤ -0.07
CCCCCCCCCCCCCCCCOCC(COP(=O)(O)OCC[N+](C)(C)C)OCC (stereo not given) [2-O-ethyl PAF C-16],scaled lipid accumulation score,[3],inactive: ≤ 0
"CCCCC[C@H](O)CC[C@H]1[C@H](O)CC(=O)[C@@H]1CCCCCCC(=O)O [13,14-Dihydro-PGE1]",scaled lipid accumulation score,[3],inactive: ≤ -0.021
C[C@@H](CN1CCC(Cc2ccccc2)CC1)[C@@H](O)c1ccc(O)cc1 [Ro 25-6981 maleate],scaled lipid accumulation score,[1],inactive: 0.284
C[C@@H](CN1CCC(Cc2ccccc2)CC1)[C@@H](O)c1ccc(O)cc1 [Ro 25-6981 hydrochloride],scaled lipid accumulation score,[1],inactive: ≤ 0
CC1CC(OC(=O)c2ccccc2O)CC(C)(C)C1 (stereo not given) [Homosalate],scaled lipid accumulation score,,inactive: ≤ 0
same,scaled lipid accumulation score,library stock concentration: 7.6 mM,inactive: ≤ 0
CNc1nc(Nc2cn(C(C)(C)C#N)nc2C)ncc1C(F)(F)F,scaled lipid accumulation score,[2],inactive: ≤ -0.009
same,scaled lipid accumulation score,[1],inactive: 0.132
C[C@H](CCC(=O)O)[C@H]1CC[C@H]2[C@@H]3[C@@H](O)C[C@@H]4C[C@H](O)CC[C@]4(C)[C@H]3CC[C@]12C [Urosiol],scaled lipid accumulation score,,inactive: ≤ 0
C[C@H](CCC(=O)O)[C@H]1CC[C@H]2[C@@H]3[C@@H](O)C[C@@H]4C[C@H](O)CC[C@]4(C)[C@H]3CC[C@]12C [Ursodiol],scaled lipid accumulation score,[2],inactive: ≤ 0
same,scaled lipid accumulation score,library stock concentration: 5.1 mM,inactive: ≤ 0
same,scaled lipid accumulation score,[1],inactive: ≤ 0
C#C[C@]1(O)CC[C@H]2[C@@H]3CCC4=CCCC[C@@H]4[C@H]3CC[C@@]21C [Lynestrenol],scaled lipid accumulation score,,inactive: ≤ 0
O=C(Nc1ccncc1)c1cc([N+](=O)[O-])ccc1Cl,scaled lipid accumulation score,[3],inactive: ≤ 0
same,scaled lipid accumulation score,[2],inactive: 0.029
same,scaled lipid accumulation score,[1],inactive: ≤ 0 and inactive: 0.707 and inactive: 0.367
O=C(CCCN1CCN(c2ccccn2)CC1)c1ccc(F)cc1 [Azaperone],scaled lipid accumulation score,,inactive: ≤ 0
same,scaled lipid accumulation score,[2],inactive: ≤ 0
same,scaled lipid accumulation score,library stock concentration: 6.1 mM,inactive: 0.044 and inactive: ≤ 0
same,scaled lipid accumulation score,[1],inactive: 0.095 and inactive: ≤ -0.027
CCCCCCNC(=O)Nc1ccc(S(=O)(=O)Nc2ccc(CCNC[C@H](O)COc3ccc(O)cc3)cc2)cc1,scaled lipid accumulation score,[1],inactive: 0.462
O=C1OC[C@H](Cc2cccc(O)c2)[C@H]1Cc1cccc(O)c1,scaled lipid accumulation score,[3],inactive: ≤ 0
C[C@]12CC[C@@H]3c4ccc(OC(=O)c5ccccc5)cc4CC[C@H]3[C@@H]1CC[C@@H]2O [Estradiol Benzoate],scaled lipid accumulation score,[2],inactive: ≤ 0
same,scaled lipid accumulation score,[1],inactive: 0.155
C[C@]12CC[C@@H]3c4ccc(OC(=O)c5ccccc5)cc4CC[C@H]3[C@@H]1CC[C@@H]2O [Estradiol benzoate],scaled lipid accumulation score,library stock concentration: 5.3 mM,inactive: ≤ 0
CC(C)(C)[N+]([O-])=Cc1ccc(S(=O)(=O)O)cc1S(=O)(=O)O,scaled lipid accumulation score,[2],inactive: 0.034
same,scaled lipid accumulation score,[1],inactive: ≤ 0
CC/C=C\C/C=C\C/C=C\C/C=C\C/C=C\C/C=C\CCC(=O)O[C@H](COCCCCCCCCCCCCCCCC)COP(=O)([O-])OCC[N+](C)(C)C [Docosahexaenoyl PAF C-16],scaled lipid accumulation score,[3],inactive: ≤ 0
O=C(/C=C\n1cnc(-c2cc(C(F)(F)F)cc(C(F)(F)F)c2)n1)N1CC(F)(F)C1,scaled lipid accumulation score,[2],inactive: ≤ -0.009
same,scaled lipid accumulation score,[1],inactive: 0.294
CC(C)OC(=O)C1=CN(C(=O)c2ccc(F)c(F)c2)CC(C)(C)c2c1[nH]c1ccccc21,scaled lipid accumulation score,[2],inactive: ≤ 0
same,scaled lipid accumulation score,[1],inactive: 0.301
COC(=O)[C@@H]1CC2=CC(=O)CC[C@]2(C)[C@@]23O[C@@H]2C[C@@]2(C)[C@@H](CC[C@@]24CCC(=O)O4)[C@H]13 [Eplerenone],scaled lipid accumulation score,[1],inactive: ≤ -0.001
O=C(O)CCC/C=C\C[C@H]1C(=O)C=C[C@@H]1/C=C/[C@@H](O)CCc1ccccc1 [17-phenyl trinor Prostaglandin A2],scaled lipid accumulation score,[3],inactive: ≤ 0
CC[C@H](CO)Nc1nc(NCc2ccccc2)c2ncn(C(C)C)c2n1 [Roscovitine],scaled lipid accumulation score,[2],inactive: ≤ 0
same,scaled lipid accumulation score,[1],inactive: 0.748
"CC[C@H](CO)Nc1nc(NCc2ccccc2)c2ncn(C(C)C)c2n1 [R-roscovitine, CYC202, Seliciclib]",scaled lipid accumulation score,[4],inactive: 0.025
same,scaled lipid accumulation score,[5],inactive: ≤ 0
same,scaled lipid accumulation score,[6],inactive: 0.08
same,scaled lipid accumulation score,[1],inactive: 0.499
Cc1ccc(NC(=O)c2cccc(C(C)(C)C#N)c2)cc1Nc1ccc2ncn(C)c(=O)c2c1,scaled lipid accumulation score,[4],inactive: ≤ 0
same,scaled lipid accumulation score,[5],inactive: ≤ 0
same,scaled lipid accumulation score,[6],inactive: ≤ 0
same,scaled lipid accumulation score,[2],inactive: 0.029
same,scaled lipid accumulation score,[1],inactive: ≤ 0
CC(C)(C)OC(=O)N1CCC(OCc2nc(-c3ccncc3)no2)CC1,scaled lipid accumulation score,[3],inactive: 0.013
CCS(=O)(=O)N1CCC[C@@H]2CN3CCc4cc(OC)ccc4[C@@H]3C[C@@H]21,scaled lipid accumulation score,[1],inactive: ≤ 0
O=C(O)c1ccccc1C(=O)Nc1ccc(S(=O)(=O)Nc2nccs2)cc1 [Phthalylsulfathiazole],scaled lipid accumulation score,,inactive: ≤ 0
same,scaled lipid accumulation score,library stock concentration: 5 mM,inactive: ≤ 0
same,scaled lipid accumulation score,[1],inactive: ≤ 0
CC[C@@H](C)Nc1cc(C(=O)N[C@H]2C[C@H]3CC[C@@H](C2)N3c2ccc(C(=O)C3CC3)cn2)c(C)cc1C(N)=O,scaled lipid accumulation score,[2],inactive: 0.762
CC(C)[C@H](NC(=O)CNC(=O)OC(C)(C)C)C(=O)N[C@H](C=O)C(C)C,scaled lipid accumulation score,library stock concentration: 14 mM,inactive: 0.022
C[N+](C)(C)CC(=O)O [Betaine hydrochloride],scaled lipid accumulation score,[1],inactive: 0.222 and inactive: 0.014
same,scaled lipid accumulation score,library stock concentration: 13 mM,inactive: ≤ 0
